{"source": "the supplement of paper PMC8728848", "binders": {"B1": {"name": "Epa12 (Candida glabrata) (protein)", "chain": "MGSSHHHHHHSSGLVPRGSHMLEPDNSLQIFDSFLSNPSKYPLGCSPKITNPKKGLSMELYSYPYRKKGSHPCWDPAYLDPNFPRVGYKKNKLIARVDGVSGDINFNFHPKRQCTPIADYLPPNFNYNEPITTTNFTMLLYGYFKPKVTGLHTFDISADDLLFMNFGAGNAFDCCRRDSTADTFGNYVAWAIWGRRIVRNKLTVRLDKGIYYPLRLFFNNRDYYGQMRLTFKTEHGSERITDFSDYFFSVDDTSEGCPGLITYESECADVKSSTVLETDYITIQAEKE"}}, "experiment_in_all_cases": "glycan array binding signal (z-score within array); higher = stronger binding", "conditions_in_all_cases": "glycan notation: IUPAC condensed, linker removed", "key": {"GalNAc3S(b1-4)GlcNAc3S": {"target": "GalNAc3S(b1-4)GlcNAc3S", "outline": "(§1)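 Glycan array data were curated from 3228 arrays in the Consortium for Functional Glycomics database and kept only where the protein sequence was available. Glycan names were converted to IUPAC-condensed notation, and columns mapping to the same glycan were averaged. The binding signal is a within-array Z-score, averaged across arrays of the same protein sequence at different concentrations or buffers and across linkers. Negative Z-scores can be read as non-binding.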"}, "[1]": {"target": "GalNAc3S(b1-4)[Fuc(a1-3)]GlcNAc", "outline": "as §1"}, "GalNAc4S6S(b1-4)GlcNAc": {"target": "GalNAc4S6S(b1-4)GlcNAc", "outline": "as §1"}, "GalNAc6S(b1-4)GlcNAc": {"target": "GalNAc6S(b1-4)GlcNAc", "outline": "as §1"}, "Glc(a1-4)Glc": {"target": "Glc(a1-4)Glc", "outline": "as §1"}, "[2]": {"target": "Glc(a1-4)Glc(a1-4)Glc(a1-4)Glc", "outline": "as §1"}, "Glc(a1-6)Glc(a1-6)Glc": {"target": "Glc(a1-6)Glc(a1-6)Glc", "outline": "as §1"}, "[3]": {"target": "Glc(a1-6)Glc(a1-6)Glc(a1-6)Glc", "outline": "as §1"}, "Glc(b1-4)Glc": {"target": "Glc(b1-4)Glc", "outline": "as §1"}, "Glc(b1-6)Glc": {"target": "Glc(b1-6)Glc", "outline": "as §1"}, "GlcA(b1-3)Gal": {"target": "GlcA(b1-3)Gal", "outline": "as §1"}, "GlcA(b1-3)GlcNAc": {"target": "GlcA(b1-3)GlcNAc", "outline": "as §1"}, "GlcA(b1-6)Gal": {"target": "GlcA(b1-6)Gal", "outline": "as §1"}, "[4]": {"target": "GlcA3S(b1-3)Gal(b1-4)GlcNAc(b1-2)Man", "outline": "as §1"}, "[5]": {"target": "GlcA3S(b1-3)Gal(b1-4)GlcNAc(b1-3)Gal(b1-4)Glc", "outline": "as §1"}, "[6]": {"target": "GlcNAc(a1-3)Gal(b1-4)GlcNAc", "outline": "as §1"}, "[7]": {"target": "GlcNAc(a1-4)Gal(b1-3)GlcNAc", "outline": "as §1"}, "[8]": {"target": "GlcNAc(a1-4)Gal(b1-4)GalNAc", "outline": "as §1"}, "[9]": {"target": "GlcNAc(a1-4)Gal(b1-4)GlcNAc", "outline": "as §1"}, "[10]": {"target": "GlcNAc(a1-4)Gal(b1-4)GlcNAc(b1-3)Gal(b1-4)Glc", "outline": "as §1"}, "[11]": {"target": "GlcNAc(a1-4)Gal(b1-4)GlcNAc(b1-3)Gal(b1-4)GlcNAc", "outline": "as §1"}, "[12]": {"target": "GlcNAc(a1-4)Gal(b1-4)GlcNAc(b1-3)Gal(b1-4)GlcNAc(b1-3)Gal(b1-4)GlcNAc", "outline": "as §1"}, "[13]": {"target": "GlcNAc(a1-4)Gal(b1-4)GlcNAc(b1-3)Gal(b1-4)[Fuc(a1-3)]GlcNAc(b1-3)Gal(b1-4)[Fuc(a1-3)]GlcNAc", "outline": "as §1"}, "[14]": {"target": "GlcNAc(a1-6)Gal(b1-4)GlcNAc", "outline": "as §1"}, "[15]": {"target": "GlcNAc(b1-2)Gal(b1-3)GalNAc", "outline": "as §1"}, "[16]": {"target": "GlcNAc(b1-2)Gal(b1-3)GlcNAc", "outline": "as §1"}, "[17]": {"target": "GlcNAc(b1-2)Man(a1-3)[GlcNAc(b1-2)Man(a1-6)]Man(b1-4)GlcNAc(b1-4)GlcNAc", "outline": "as §1"}, "[18]": {"target": "GlcNAc(b1-2)Man(a1-3)[GlcNAc(b1-2)Man(a1-6)]Man(b1-4)GlcNAc(b1-4)[Fuc(a1-6)]GlcNAc", "outline": "as §1"}, "[19]": {"target": "GlcNAc(b1-2)Man(a1-3)[GlcNAc(b1-4)][GlcNAc(b1-2)Man(a1-6)]Man(b1-4)GlcNAc(b1-4)GlcNAc", "outline": "as §1"}, "[20]": {"target": "GlcNAc(b1-2)Man(a1-3)[GlcNAc(b1-4)][GlcNAc(b1-2)Man(a1-6)]Man(b1-4)GlcNAc(b1-4)[Fuc(a1-6)]GlcNAc", "outline": "as §1"}, "[21]": {"target": "GlcNAc(b1-2)[GlcNAc(b1-4)]Man(a1-3)[GlcNAc(b1-2)Man(a1-6)]Man(b1-4)GlcNAc(b1-4)GlcNAc", "outline": "as §1"}, "[22]": {"target": "GlcNAc(b1-2)[GlcNAc(b1-4)]Man(a1-3)[GlcNAc(b1-4)][GlcNAc(b1-2)Man(a1-6)]Man(b1-4)GlcNAc(b1-4)GlcNAc", "outline": "as §1"}, "[23]": {"target": "GlcNAc(b1-2)[GlcNAc(b1-4)]Man(a1-3)[GlcNAc(b1-4)][GlcNAc(b1-2)[GlcNAc(b1-6)]Man(a1-6)]Man(b1-4)GlcNAc(b1-4)GlcNAc", "outline": "as §1"}, "[24]": {"target": "GlcNAc(b1-2)[GlcNAc(b1-4)]Man(a1-3)[GlcNAc(b1-4)][GlcNAc(b1-2)[GlcNAc(b1-6)]Man(a1-6)]Man(b1-4)GlcNAc(b1-4)[Fuc(a1-6)]GlcNAc", "outline": "as §1"}, "[25]": {"target": "GlcNAc(b1-2)[GlcNAc(b1-6)]Man(a1-6)[GlcNAc(b1-2)Man(a1-3)]Man(b1-4)GlcNAc(b1-4)GlcNAc", "outline": "as §1"}, "[26]": {"target": "GlcNAc(b1-2)[GlcNAc(b1-6)]Man(a1-6)[GlcNAc(b1-2)Man(a1-3)]Man(b1-4)GlcNAc(b1-4)[Fuc(a1-6)]GlcNAc", "outline": "as §1"}, "[27]": {"target": "GlcNAc(b1-2)[GlcNAc(b1-6)]Man(a1-6)[GlcNAc(b1-4)][GlcNAc(b1-2)Man(a1-3)]Man(b1-4)GlcNAc(b1-4)GlcNAc", "outline": "as §1"}, "GlcNAc(b1-3)Fuc": {"target": "GlcNAc(b1-3)Fuc", "outline": "as §1"}, "GlcNAc(b1-3)Gal": {"target": "GlcNAc(b1-3)Gal", "outline": "as §1"}, "[28]": {"target": "GlcNAc(b1-3)Gal(b1-3)GalNAc", "outline": "as §1"}, "GlcNAc(b1-3)Gal(b1-4)Glc": {"target": "GlcNAc(b1-3)Gal(b1-4)Glc", "outline": "as §1"}, "[29]": {"target": "GlcNAc(b1-3)Gal(b1-4)GlcNAc", "outline": "as §1"}, "[30]": {"target": "GlcNAc(b1-3)Gal(b1-4)GlcNAc(b1-2)Man(a1-3)[GlcNAc(b1-3)Gal(b1-4)GlcNAc(b1-2)Man(a1-6)]Man(b1-4)GlcNAc(b1-4)GlcNAc", "outline": "as §1"}, "[31]": {"target": "GlcNAc(b1-3)Gal(b1-4)GlcNAc(b1-2)Man(a1-3)[GlcNAc(b1-3)Gal(b1-4)GlcNAc(b1-2)Man(a1-6)]Man(b1-4)GlcNAc(b1-4)[Fuc(a1-6)]GlcNAc", "outline": "as §1"}, "[32]": {"target": "GlcNAc(b1-3)Gal(b1-4)GlcNAc(b1-2)[GlcNAc(b1-3)Gal(b1-4)GlcNAc(b1-6)]Man(a1-6)[GlcNAc(b1-3)Gal(b1-4)GlcNAc(b1-2)Man(a1-3)]Man(b1-4)GlcNAc(b1-4)GlcNAc", "outline": "as §1"}}, "note": "The other results are listed elsewhere or left out."}
{"binder": "B1", "values": [{"measurement": "glycan array binding signal (z-score)", "setting": "GalNAc3S(b1-4)GlcNAc3S", "value": -0.237}, {"measurement": "glycan array binding signal (z-score)", "setting": "[1]", "value": -0.341}, {"measurement": "glycan array binding signal (z-score)", "setting": "GalNAc4S6S(b1-4)GlcNAc", "value": -0.154}, {"measurement": "glycan array binding signal (z-score)", "setting": "GalNAc6S(b1-4)GlcNAc", "value": -0.346}, {"measurement": "glycan array binding signal (z-score)", "setting": "Glc(a1-4)Glc", "value": -0.32}, {"measurement": "glycan array binding signal (z-score)", "setting": "[2]", "value": -0.195}, {"measurement": "glycan array binding signal (z-score)", "setting": "Glc(a1-6)Glc(a1-6)Glc", "value": -0.332}, {"measurement": "glycan array binding signal (z-score)", "setting": "[3]", "value": -0.295}, {"measurement": "glycan array binding signal (z-score)", "setting": "Glc(b1-4)Glc", "value": -0.371}, {"measurement": "glycan array binding signal (z-score)", "setting": "Glc(b1-6)Glc", "value": -0.278}, {"measurement": "glycan array binding signal (z-score)", "setting": "GlcA(b1-3)Gal", "value": -0.149}, {"measurement": "glycan array binding signal (z-score)", "setting": "GlcA(b1-3)GlcNAc", "value": -0.388}, {"measurement": "glycan array binding signal (z-score)", "setting": "GlcA(b1-6)Gal", "value": 1.79}, {"measurement": "glycan array binding signal (z-score)", "setting": "[4]", "value": -0.13}, {"measurement": "glycan array binding signal (z-score)", "setting": "[5]", "value": -0.32}, {"measurement": "glycan array binding signal (z-score)", "setting": "[6]", "value": -0.35}, {"measurement": "glycan array binding signal (z-score)", "setting": "[7]", "value": -0.483}, {"measurement": "glycan array binding signal (z-score)", "setting": "[8]", "value": -0.356}, {"measurement": "glycan array binding signal (z-score)", "setting": "[9]", "value": -0.263}, {"measurement": "glycan array binding signal (z-score)", "setting": "[10]", "value": -0.589}, {"measurement": "glycan array binding signal (z-score)", "setting": "[11]", "value": -0.33}, {"measurement": "glycan array binding signal (z-score)", "setting": "[12]", "value": -0.33}, {"measurement": "glycan array binding signal (z-score)", "setting": "[13]", "value": -0.289}, {"measurement": "glycan array binding signal (z-score)", "setting": "[14]", "value": 1.99}, {"measurement": "glycan array binding signal (z-score)", "setting": "[15]", "value": -0.357}, {"measurement": "glycan array binding signal (z-score)", "setting": "[16]", "value": -0.289}, {"measurement": "glycan array binding signal (z-score)", "setting": "[17]", "value": -0.315}, {"measurement": "glycan array binding signal (z-score)", "setting": "[18]", "value": -0.354}, {"measurement": "glycan array binding signal (z-score)", "setting": "[19]", "value": -0.179}, {"measurement": "glycan array binding signal (z-score)", "setting": "[20]", "value": -0.395}, {"measurement": "glycan array binding signal (z-score)", "setting": "[21]", "value": -0.323}, {"measurement": "glycan array binding signal (z-score)", "setting": "[22]", "value": -0.203}, {"measurement": "glycan array binding signal (z-score)", "setting": "[23]", "value": -0.341}, {"measurement": "glycan array binding signal (z-score)", "setting": "[24]", "value": -0.325}, {"measurement": "glycan array binding signal (z-score)", "setting": "[25]", "value": -0.332}, {"measurement": "glycan array binding signal (z-score)", "setting": "[26]", "value": -0.384}, {"measurement": "glycan array binding signal (z-score)", "setting": "[27]", "value": -0.38}, {"measurement": "glycan array binding signal (z-score)", "setting": "GlcNAc(b1-3)Fuc", "value": -0.36}, {"measurement": "glycan array binding signal (z-score)", "setting": "GlcNAc(b1-3)Gal", "value": -0.378}, {"measurement": "glycan array binding signal (z-score)", "setting": "[28]", "value": -0.308}, {"measurement": "glycan array binding signal (z-score)", "setting": "GlcNAc(b1-3)Gal(b1-4)Glc", "value": -0.316}, {"measurement": "glycan array binding signal (z-score)", "setting": "[29]", "value": -0.352}, {"measurement": "glycan array binding signal (z-score)", "setting": "[30]", "value": -0.343}, {"measurement": "glycan array binding signal (z-score)", "setting": "[31]", "value": -0.335}, {"measurement": "glycan array binding signal (z-score)", "setting": "[32]", "value": -0.298}]}
